Values quoted from earlier work, collected in patent US20140235576A1, “PYRROLIDINE-2-CARBOXYLIC ACID DERIVATIVES AS IGLUR ANTAGONISTS” (Kobenhavns Universitet, priority 2013, published 2014).

Legend:
Details in all cases: cloned homomeric subtype; values taken from reference 49; cited from earlier work
GluK1 = GluK1 (UniProt P22756)
GluK3 = biological target: T1, GluK3 (Rattus norvegicus, UniProt P42264)
T1 construct: expressed in transfected cells

GluK2 = GluK2 (UniProt P42260)

T1 sequence (P42264 32-919): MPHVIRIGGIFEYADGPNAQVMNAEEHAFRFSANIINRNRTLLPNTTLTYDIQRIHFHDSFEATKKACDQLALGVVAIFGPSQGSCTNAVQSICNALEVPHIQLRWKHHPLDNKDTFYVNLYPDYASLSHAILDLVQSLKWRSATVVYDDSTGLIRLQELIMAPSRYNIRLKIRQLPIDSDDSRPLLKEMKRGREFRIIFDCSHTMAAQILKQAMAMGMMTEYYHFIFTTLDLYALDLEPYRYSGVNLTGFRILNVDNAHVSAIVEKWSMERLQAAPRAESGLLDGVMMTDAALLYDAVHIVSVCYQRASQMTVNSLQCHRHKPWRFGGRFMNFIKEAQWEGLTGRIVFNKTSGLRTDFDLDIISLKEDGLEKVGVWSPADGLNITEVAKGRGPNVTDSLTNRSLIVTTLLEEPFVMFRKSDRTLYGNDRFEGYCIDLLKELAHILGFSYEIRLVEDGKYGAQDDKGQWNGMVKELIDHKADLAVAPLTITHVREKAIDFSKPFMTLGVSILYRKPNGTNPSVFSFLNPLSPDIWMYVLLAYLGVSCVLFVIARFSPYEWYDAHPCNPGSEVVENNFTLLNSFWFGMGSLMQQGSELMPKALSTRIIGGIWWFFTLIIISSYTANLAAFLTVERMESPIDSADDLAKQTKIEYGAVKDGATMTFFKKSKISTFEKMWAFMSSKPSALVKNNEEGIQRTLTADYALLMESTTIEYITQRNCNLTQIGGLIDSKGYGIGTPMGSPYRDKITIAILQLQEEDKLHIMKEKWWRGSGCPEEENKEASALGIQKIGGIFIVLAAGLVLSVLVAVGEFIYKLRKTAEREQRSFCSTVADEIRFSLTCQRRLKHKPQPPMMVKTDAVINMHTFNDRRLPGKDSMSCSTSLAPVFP

O=C(O)c1cccc([C@H]2CCN[C@@H]2C(=O)O)c1 [Analog 1]
pKi (GluK1): 5.37 | pKi (GluK3): 5.09 | pKi (GluK2): < 4.00

pKi: −log10 of the molar value.
